{"source": "patent US6693174B2", "about": "“Gene regulating aureobasidin sensitivity” (Takara Shuzo Co., Ltd., priority 1993, dated 2004)", "tested_on": "Sake yeast Kyokai K-701 transformants", "assay": "Aureobasidin A resistance of sake yeast transformants obtained with StuI-linearized plasmids", "conditions": "transformant obtained by using the linearized pUscaur1R-C", "note": "*1 amine or outer side, *2 acyl side, *3 side chain or, on linkers, in order; H or OH if unused. Where a SMILES comes first, the peptide text is derived from it. [ ]: non-standard residue; d: D form. X1 = CC[C@@H](C)[C@@H](O[*:1])C(=O)[*:2]; NMeVal(β-OH) = CN[C@H](C(=O)O)C(C)(C)O; NMeF = CN[C@@H](Cc1ccccc1)C(=O)O; aIle = CC[C@@H](C)[C@H](N)C(=O)O; NMeV = CN[C@H](C(=O)O)C(C)C"}
{"smiles": "CC[C@@H](C)[C@@H]1NC(=O)[C@@H]2CCCN2C(=O)[C@H](Cc2ccccc2)N(C)C(=O)[C@H](Cc2ccccc2)NC(=O)[C@H](C(C)C)N(C)C(=O)[C@@H]([C@H](C)CC)OC(=O)[C@H](C(C)(C)O)N(C)C(=O)[C@H](CC(C)C)NC(=O)[C@H](C(C)C)N(C)C1=O", "note": "[aureobasidin A] (cyclo(F[NMeF]P[aIle][NMeV]L[NMeVal(β-OH)][X1][NMeV]))", "values": [{"measurement": "MIC to aureobasidin A", "value": "≥ 20", "unit": "µg/mL"}]}
